# The other results are listed elsewhere or left out.
# Molecular target: T1, MBP-FoxP1dN (Mus musculus, UniProt P58462 326-579)
# T1 sequence: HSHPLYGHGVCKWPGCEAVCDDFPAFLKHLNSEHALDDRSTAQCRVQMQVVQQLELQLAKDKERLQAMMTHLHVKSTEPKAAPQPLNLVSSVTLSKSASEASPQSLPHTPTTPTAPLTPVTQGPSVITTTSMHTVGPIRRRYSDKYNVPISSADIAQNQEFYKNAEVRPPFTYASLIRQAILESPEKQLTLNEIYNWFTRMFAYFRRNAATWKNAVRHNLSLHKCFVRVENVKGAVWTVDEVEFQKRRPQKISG
# Assay: PD-seq (MBP pull-down with sequencing); 20 mM Tris-HCl pH 7.5, 100 mM NaCl, 1.5 mM MgCl2, 0.4 uM protein, 0.1 uM dsDNA library, 30 min, room temperature, amylose pull-down; high values mean tight binding
# Details: protein: recombinant; tags: His6-MBP; chain copies: 2; dsDNA, one strand shown
# How it was run: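 In Tris pH 7.5 buffer with NaCl and MgCl2, 0.4 µM His6-MBP-tagged mouse FoxP3 or FoxP1 fragment lacking the N-terminus, from E. coli, met 0.1 µM Klenow-filled double-stranded degenerate DNA library for 30 min at room temperature. Three washes on amylose resin followed capture of the complexes, then proteinase K release of DNA, PCR barcoding and Illumina sequencing. Binding is taken as pooled-replicate reads-per-million enrichment of pull-down relative to input.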
row,Sequence,binding signal
1,GATGATTGTTCTCCCAGCTGATGAATTAGGTCTTTCGAGTAAACAAATTTTCCTAATCTTTCTGTTCAAGCGCCATCTAC,0.894 RPM ratio (pull-down/input)
2,GATGATTGTTCTCCCAGCTGATGAATTAAAATTTTCGAGTAAACAAATTTTCCTAATCTTTCTGTTCAAGCGCCATCTAC,0.956 RPM ratio (pull-down/input)
3,GATGATTGTTCTCCCAGCTGATGAATTAGGTCTCTCGAGTAAACAAATTTTCCTAATCTTTCTGTTCAAGCGCCATCTAC,0.802 RPM ratio (pull-down/input)
4,GATGATTGTTCTCCCAGCTGATGAATTTGAACACTCGAGTAAACAAATTTTCCTAATCTTTCTGTTCAAGCGCCATCTAC,0.93 RPM ratio (pull-down/input)
5,GATGATTGTTCTCCCAGCTGATGAATTAGTCCCGTCGAGTAAACAAATTTTCCTAATCTTTCTGTTCAAGCGCCATCTAC,0.909 RPM ratio (pull-down/input)
6,GATGATTGTTCTCCCAGCTGATGAATTATGCCCGTCGAGTAAACAAATTTTCCTAATCTTTCTGTTCAAGCGCCATCTAC,0.958 RPM ratio (pull-down/input)
7,GATGATTGTTCTCCCAGCTGATGAATTTCAGACCTCGAGTAAACAAATTTTCCTAATCTTTCTGTTCAAGCGCCATCTAC,0.717 RPM ratio (pull-down/input)
8,GATGATTGTTCTCCCAGCTGATGAATTATCGCTCTCGAGTAAACAAATTTTCCTAATCTTTCTGTTCAAGCGCCATCTAC,0.968 RPM ratio (pull-down/input)
9,GATGATTGTTCTCCCAGCTGATGAATTCCGTGTTTCGAGTAAACAAATTTTCCTAATCTTTCTGTTCAAGCGCCATCTAC,0.891 RPM ratio (pull-down/input)
10,GATGATTGTTCTCCCAGCTGATGAATTTGTGCACTCGAGTAAACAAATTTTCCTAATCTTTCTGTTCAAGCGCCATCTAC,1.12 RPM ratio (pull-down/input)
11,GATGATTGTTCTCCCAGCTGATGAATTCGGTTACTCGAGTAAACAAATTTTCCTAATCTTTCTGTTCAAGCGCCATCTAC,0.871 RPM ratio (pull-down/input)
12,GATGATTGTTCTCCCAGCTGATGAATTTGTTCGGTCGAGTAAACAAATTTTCCTAATCTTTCTGTTCAAGCGCCATCTAC,1.08 RPM ratio (pull-down/input)
13,GATGATTGTTCTCCCAGCTGATGAATTAATACCGTCGAGTAAACAAATTTTCCTAATCTTTCTGTTCAAGCGCCATCTAC,1.03 RPM ratio (pull-down/input)
14,GATGATTGTTCTCCCAGCTGATGAATTCACGACTTCGAGTAAACAAATTTTCCTAATCTTTCTGTTCAAGCGCCATCTAC,0.834 RPM ratio (pull-down/input)
15,GATGATTGTTCTCCCAGCTGATGAATTCGCTGAGTCGAGTAAACAAATTTTCCTAATCTTTCTGTTCAAGCGCCATCTAC,0.822 RPM ratio (pull-down/input)
16,GATGATTGTTCTCCCAGCTGATGAATTTTTACTGTCGAGTAAACAAATTTTCCTAATCTTTCTGTTCAAGCGCCATCTAC,0.975 RPM ratio (pull-down/input)

row,Sequence,binding signal
1,GATGATTGTTCTCCCAGCTGATGAATTTAGGTAGTCGAGTAAACAAATTTTCCTAATCTTTCTGTTCAAGCGCCATCTAC,0.982 RPM ratio (pull-down/input)
2,GATGATTGTTCTCCCAGCTGATGAATTCTCTCGTTCGAGTAAACAAATTTTCCTAATCTTTCTGTTCAAGCGCCATCTAC,0.866 RPM ratio (pull-down/input)
3,GATGATTGTTCTCCCAGCTGATGAATTGGCCTAGTCGAGTAAACAAATTTTCCTAATCTTTCTGTTCAAGCGCCATCTAC,0.821 RPM ratio (pull-down/input)
4,GATGATTGTTCTCCCAGCTGATGAATTGTTTAGTTCGAGTAAACAAATTTTCCTAATCTTTCTGTTCAAGCGCCATCTAC,1.94 RPM ratio (pull-down/input)
5,GATGATTGTTCTCCCAGCTGATGAATTCTGCAACTCGAGTAAACAAATTTTCCTAATCTTTCTGTTCAAGCGCCATCTAC,0.954 RPM ratio (pull-down/input)
6,GATGATTGTTCTCCCAGCTGATGAATTAGACGACTCGAGTAAACAAATTTTCCTAATCTTTCTGTTCAAGCGCCATCTAC,0.881 RPM ratio (pull-down/input)
7,GATGATTGTTCTCCCAGCTGATGAATTTCTTTGCTCGAGTAAACAAATTTTCCTAATCTTTCTGTTCAAGCGCCATCTAC,0.931 RPM ratio (pull-down/input)
8,GATGATTGTTCTCCCAGCTGATGAATTTTACACGTCGAGTAAACAAATTTTCCTAATCTTTCTGTTCAAGCGCCATCTAC,0.96 RPM ratio (pull-down/input)
9,GATGATTGTTCTCCCAGCTGATGAATTAAGCTCATCGAGTAAACAAATTTTCCTAATCTTTCTGTTCAAGCGCCATCTAC,0.881 RPM ratio (pull-down/input)
10,GATGATTGTTCTCCCAGCTGATGAATTATGTCGTTCGAGTAAACAAATTTTCCTAATCTTTCTGTTCAAGCGCCATCTAC,1.12 RPM ratio (pull-down/input)
11,GATGATTGTTCTCCCAGCTGATGAATTGGGAGCCTCGAGTAAACAAATTTTCCTAATCTTTCTGTTCAAGCGCCATCTAC,0.844 RPM ratio (pull-down/input)
12,GATGATTGTTCTCCCAGCTGATGAATTGGACAGCTCGAGTAAACAAATTTTCCTAATCTTTCTGTTCAAGCGCCATCTAC,0.859 RPM ratio (pull-down/input)
13,GATGATTGTTCTCCCAGCTGATGAATTTCCAAACTCGAGTAAACAAATTTTCCTAATCTTTCTGTTCAAGCGCCATCTAC,0.878 RPM ratio (pull-down/input)
14,GATGATTGTTCTCCCAGCTGATGAATTCGTGTACTCGAGTAAACAAATTTTCCTAATCTTTCTGTTCAAGCGCCATCTAC,1.03 RPM ratio (pull-down/input)
15,GATGATTGTTCTCCCAGCTGATGAATTATTTAGGTCGAGTAAACAAATTTTCCTAATCTTTCTGTTCAAGCGCCATCTAC,1.3 RPM ratio (pull-down/input)

# Reference: article PMC12820563, “FoxP3 forms a head-to-head dimer in vivo and stabilizes its multimerization on adjacent microsatellites”
